Molecules are shown by their SMILES. Out of some 16,000 compounds screened, about 120 (0.75%) were called active. Inconclusive results (about 4%) are left out. Calls come from the whole dose curve; as a rule, active = well fitted inhibition curve with a large enough effect; inconclusive = small, poorly fitted or top-dose-only effect; inactive = no such curve, though single readings can be large or run the other way. The list shows a part of the results.

The values that follow come from PubChem BioAssay AID1645882 (National Center for Advancing Translational Sciences (NCATS), 2021).

In the experiment the target is Rap guanine nucleotide exchange factor 3 (Homo sapiens) (UniProt O95398). Put plainly: Validation qHTS for antagonist of cAMP-regulated guanine nucleotide exchange factor 3 (EPAC1).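 Note: plate controls were DMSO for no effect and ATA control for full effect; nearly all actives have a fitted effect of over 75% in size.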 Particulars: EPAC1 Rap1B-BODIPY-GDP exchange, fluorescence; series mostly up to 150 µM; activity change, negative = inhibition: at the top concentration. The gist of the method: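 Nucleotide exchange followed as fluorescence loss when BODIPY-GDP leaves Rap1B (480 nm excitation, 540 nm emission), read at 5 min intervals over 30 min. Reaction: 100 nM EPAC1, 250 nM RAP1B-BODIPY-GDP, 50 uM GDP; ATA and DMSO define normalization.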
UniProt O95398, sequence (O95398 whole entry, looked up): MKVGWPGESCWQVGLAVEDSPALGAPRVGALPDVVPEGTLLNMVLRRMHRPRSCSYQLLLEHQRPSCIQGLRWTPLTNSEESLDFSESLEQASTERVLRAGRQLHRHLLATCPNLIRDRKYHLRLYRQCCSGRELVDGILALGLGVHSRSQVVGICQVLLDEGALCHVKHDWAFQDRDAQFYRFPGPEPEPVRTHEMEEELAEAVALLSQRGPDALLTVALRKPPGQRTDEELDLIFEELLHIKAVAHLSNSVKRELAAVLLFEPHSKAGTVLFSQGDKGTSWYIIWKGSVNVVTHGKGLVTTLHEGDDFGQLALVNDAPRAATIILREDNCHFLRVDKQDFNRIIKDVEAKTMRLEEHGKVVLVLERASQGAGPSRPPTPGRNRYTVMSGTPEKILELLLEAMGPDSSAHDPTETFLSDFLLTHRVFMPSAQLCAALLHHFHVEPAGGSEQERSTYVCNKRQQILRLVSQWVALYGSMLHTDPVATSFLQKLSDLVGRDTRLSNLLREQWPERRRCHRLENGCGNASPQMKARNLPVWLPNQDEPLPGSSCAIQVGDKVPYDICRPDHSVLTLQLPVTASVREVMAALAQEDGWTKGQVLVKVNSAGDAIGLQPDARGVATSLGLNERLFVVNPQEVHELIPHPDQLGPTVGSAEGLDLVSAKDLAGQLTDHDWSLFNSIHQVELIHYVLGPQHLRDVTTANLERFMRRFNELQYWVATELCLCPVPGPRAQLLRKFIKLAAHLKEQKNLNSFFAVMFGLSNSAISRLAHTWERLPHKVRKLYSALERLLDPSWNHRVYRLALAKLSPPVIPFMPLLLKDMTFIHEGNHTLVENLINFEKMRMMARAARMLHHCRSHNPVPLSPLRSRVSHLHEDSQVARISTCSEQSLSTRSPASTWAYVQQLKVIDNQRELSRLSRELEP
(qHTS replaces the single test concentration by a dilution series.)
Regarding `c1ccc(CN2CCCC3(CCNCC3)C2)cc1`, the “activity change, negative = inhibition” value was inactive: 13.9%. As for `COc1cccc(-c2ccc(O)c(CNC3CN4CCC3CC4)c2)n1` (stereo not given), the “activity change, negative = inhibition” value was inactive: 5.82%. On to `NCC1(CC(=O)O)CCCCC1`, for which the activity change, negative = inhibition result is “inactive”. Consider `COc1cc2ccc(=O)oc2c2ccoc12`, for which the “activity change, negative = inhibition” value is inactive: -8.29%. In the case of `C[C@]12CC[C@H]3[C@@H](CCC4=CC(=O)CC[C@@]43C)[C@@H]1CC[C@@H]2OC(=O)CCc1ccccc1`, the “activity change, negative = inhibition” value is inactive: 9.06% [at 320 µM]. Take `COC1CC(OC2CC[C@@]3(C=O)C4CC[C@]5(C)C(C6=CC(=O)OC6)CC[C@@]5(O)C4CC[C@]3(O)C2)OC(C)C1O` (stereo not given in full): the “activity change, negative = inhibition” value is inactive: 7.91%. For `CCC(=O)Nc1ccc(Cl)c(Cl)c1`, the “activity change, negative = inhibition” value was inactive: -22.6%. The value for `CCC(=O)C(CC(C)N(C)C)(c1ccccc1)c1ccccc1` (stereo not given) was inactive: 34.5% [at 320 µM]. Consider `C=CCc1ccc(OC)cc1`, for which the “activity change, negative = inhibition” value is inactive: -7.98%. Take `CCOC(=O)[C@]12Cc3ccccc3[C@H]1N(Cc1ccccc1)C(=O)c1ccccc12`: the “activity change, negative = inhibition” value is inactive: -0.377%.

As for `COc1ccc(OC)c([C@@H](O)[C@H](C)N)c1`, the “activity change, negative = inhibition” value was inactive: 18%. As to `Cc1ccccc1-c1cncnc1NCCc1cnc[nH]1`, the “activity change, negative = inhibition” value was inactive: 21.5%. The value for `COC[C@H]1OC(=O)c2coc3c2[C@@]1(C)C1=C(C3=O)C2CCC(=O)[C@@]2(C)C[C@H]1OC(C)=O` (stereo not given in full) was “inactive”. Turning to `Nc1ccc(Cl)cc1N`, the “activity change, negative = inhibition” value was inactive: 9.12% [at 320 µM].

Consider `CN(C(=O)Cc1ccc(Cl)c(Cl)c1)[C@H](CN1CCCC1)c1cccc(N=C=S)c1`, for which the “activity change, negative = inhibition” value was inactive: -9.35%.

`O=C(O)CF`: the “activity change, negative = inhibition” value was inactive: 7.39%. Regarding `Cc1ccc2c(c1)[C@]13CCCC[C@@H]1[C@H](C2)N(C)CC3`, the “activity change, negative = inhibition” value is inactive: 19.2%. Take `O=C(CCCN1CCC2(CC1)C(=O)NCN2c1ccccc1)c1ccc(F)cc1`: the activity change, negative = inhibition result is “inactive”. Turning to `C=CCN1CCC23c4c5ccc(O)c4OC2/C(=N/N=C2\CCC4(O)C6Cc7ccc(O)c8c7C4(CCN6CC=C)C2O8)CCC3(O)C1C5` (stereo not given), the “activity change, negative = inhibition” value is inactive: 7.98%.

`C[C@@H]1O[C@H](C[N+](C)(C)C)CS1`: the “activity change, negative = inhibition” value is inactive: -10.3% [at 75.8 µM]. `CCOP(=O)(OCC)O/C(=C/Cl)c1ccc(Cl)cc1Cl`: the “activity change, negative = inhibition” value is inactive: 0.79%.

Turning to `O=[N+]([O-])O[C@H]1CO[C@H]2[C@@H]1OC[C@H]2O[N+](=O)[O-]`, the “activity change, negative = inhibition” value is inactive: 18.8%.

On to `C[C@]12Cc3nonc3C[C@@H]1CC[C@@H]1[C@@H]2CC[C@@]2(C)[C@H]1CC[C@]2(C)O`, for which the “activity change, negative = inhibition” value was inactive: 10.4%. The value for `C=C1CC[C@@]2(O)[C@H]3Cc4ccc(O)c5c4[C@@]2(CCN3CC2CC2)[C@H]1O5` was inactive: 15%; that for `Fc1ccc(C(OCCN2CCN(C/C=C/c3ccccc3)CC2)c2ccc(F)cc2)cc1` was inactive: -13.8%. `CC(C)Oc1cccnc1N(C)C1CCN(Cc2ccccc2)CC1`: the “activity change, negative = inhibition” value is inactive: -9.06% [at 75.8 µM]. As to `CCOC(=O)/C=C(C)/C=C/C[C@@H](C)CCCC(C)C`, the “activity change, negative = inhibition” value was inactive: 4.04%.

Consider `C#CCN1CC(=O)N(COC(=O)C2C(C=C(C)C)C2(C)C)C1=O` (stereo not given), for which the “activity change, negative = inhibition” value was inactive: 6.29%. Regarding `Cc1ncsc1CCCl`, the activity change, negative = inhibition entry is “inactive”. `CC(=O)OC1CC[C@]2(C)C(CCC3C2CC[C@]2(C)C(C4=CC(=O)OC4)C(OC(C)=O)CC32O)C1` (stereo not given in full): the “activity change, negative = inhibition” value was inactive: -0.664%. Take `CCCCCCC(C)(C)c1ccc([C@@H]2C[C@H](O)CC[C@H]2CCCO)c(O)c1`: the “activity change, negative = inhibition” value is inactive: 7.06% [at 75.8 µM]. The value for `CC(C)CN1CCC2(CC1)CCN(S(C)(=O)=O)CC2` was inactive: 6.2%; that for `CCN1C[C@]2(C)CC[C@H](OC)[C@@]34[C@H]1C1(OCO[C@@]15C[C@H](OC)C1C[C@]3(O)C5[C@H]1OC)[C@@H](O)[C@H]24` was inactive: 0.739%; that for `C[C@@]12CCC(Cl)C[C@H]1CCC1C2CC[C@]2(C)C(=O)CCC12` (stereo not given in full) was inactive: 7.52%. As to `COC1(CS(=O)c2ccccc2)CCN(CCc2c[nH]c3ccc(F)cc23)CC1` (stereo not given), the “activity change, negative = inhibition” value is inactive: 15.3%.

On to `O.O.O.O=C([O-])C(O)C(O)C(=O)[O-].O=C([O-])C(O)C(O)C(=O)[O-].[K+].[K+].[Sb].[Sb]` (stereo not given), for which the “activity change, negative = inhibition” value is inactive: 15.8%. The value for `C=CCN1CC[C@@]23c4c5ccc(O)c4O[C@H]2/C(=N\N=C2/CC[C@@]4(O)[C@H]6Cc7ccc(O)c8c7[C@@]4(CCN6CC=C)[C@@H]2O8)CC[C@]3(O)[C@@H]1C5` was inactive: 10.9%; that for `O=C(Nc1ccccc1)N1CC[C@@]2(CCCNC2)C1` was inactive: 2.67%; that for `[2H]C([2H])([2H])[C@H](N)Cc1ccccc1` was inactive: 17%.

Turning to `CC(O)(CS(=O)(=O)c1ccc(F)cc1)C(=O)Nc1ccc(C#N)c(C(F)(F)F)c1` (stereo not given), the “activity change, negative = inhibition” value was inactive: 4.8% [at 75.8 µM].

For `C=CCN1CC[C@]23c4c5ccc(O)c4O[C@@H]2/C(=N/N=C2\CC[C@@]4(O)C6Cc7ccc(O)c8c7[C@@]4(CCN6CC=C)[C@@H]2O8)CC[C@@]3(O)C1C5`, the “activity change, negative = inhibition” value was inactive: -8.98% [at 75.8 µM].

On to `CC1O[C@@H](O[C@@H]2C(O)C[C@H](O[C@@H]3C(O)C[C@@H](OC4CC[C@@]5(C)C6CC[C@]7(C)C(C8=CC(=O)OC8)CC[C@@]7(O)C6CC[C@@H]5C4)OC3C)OC2C)CC(O)[C@H]1O` (stereo not given in full), for which the “activity change, negative = inhibition” value was inactive: 10.4%. The value for `CCCn1c(=O)c2[nH]c(C3CCCC3)nc2n(CCCOC(=O)c2ccc(S(=O)(=O)F)cc2)c1=O` was inactive: 7.11% [at 75.8 µM]; that for `CN1C2CCC1CC(OC(c1ccccc1)c1ccc(Cl)cc1)C2` (stereo not given) was inactive: 6.83%.

In the case of `CC1CC[C@@]2(OC1)O[C@@H]1[C@@H](O)[C@H]3C4CC[C@H]5C[C@@H](O[C@@H]6O[C@H](CO)[C@H](O[C@@H]7O[C@H](CO)[C@@H](O)[C@H](O[C@@H]8OC[C@@H](O)[C@H](O)[C@H]8O)[C@H]7O[C@@H]7O[C@H](CO)[C@@H](O)[C@H](O[C@@H]8O[C@H](CO)[C@@H](O)[C@H](O)[C@H]8O)[C@H]7O)[C@H](O)[C@H]6O)[C@H](O)C[C@]5(C)C4CC[C@]3(C)[C@H]1[C@@H]2C` (stereo not given in full), the “activity change, negative = inhibition” value was inactive: 12.2%.
